Measured values from the supplement of paper PMC10126150.
Sequences with one replicate were seen in a single cluster, so their values are uncertain.

tested on: ATP; experiment: switch fluorescence ratio, 500 uM ATP over buffer (Cy3 cluster intensity, sum of 5 cycles each) (fold (ratio)); higher = stronger signal-on switching upon ATP binding; sequences stand for … in TCGTCGGCAGCGTCAGATGTGTATAAGAGACAGTTTTTTTTTTTTTTTTTTTTTTTTT…TC; details: aptamer strand: ATP DNA aptamer (quencher-CACCTGGGGGAGTATTGCGGAGGAAGG + anchor), 100 nM annealed; ATP concentration: 500 uM; one replicate
Procedure, shortened: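 Switching-strand clusters labelled with Cy3 on a modified Illumina MiSeq flow-cell were annealed to 100 nM quencher-labelled ATP aptamer, imaged in selection buffer, and re-imaged after 15 min with 500 uM ATP at 22 °C. This was done over five cycles with NaOH stripping and re-annealing in between. The fluorescence ratio is summed target-cycle over summed buffer-cycle Cy3 intensity per cluster, averaged per switch-domain sequence, excluding clusters outside 100-1000 RFU.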
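Note: ATP exposure 15 min at 22 °C before imaging.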

Sequence | switch fluorescence ratio
CCTCACACTC | 4.44
CCTCACCACG | 1.23
CCTCACTTAT | 1.34
CCTCAGATAT | 1.73
CCTCAGGGGA | 3.61
CCTCATATCT | 1.03
CCTCCTCTTC | 1.88
CCTCGATCAG | 1.04
CCTCGCATTT | 1.91
CCTCGGATTA | 1.71
CCTCGGTGAA | 1.75
CCTCTACGGA | 1.16
CCTCTATGGC | 1.54
CCTCTCCTTT | 1.1
CCTCTTGGA | 1.04
CCTCTTTATT | 0.993
CCTCTTTCAT | 1.14
CCTCTTTGGC | 1.13
CCTGAACCCT | 1.02
CCTGACCACC | 1.36
CCTGATCTGT | 1.02
CCTGATTCGT | 1
CCTGATTTTC | 0.996
CCTGCAGCTG | 1.11
CCTGCATCCC | 2.82

Sequence | switch fluorescence ratio
CCTGCATGCT | 1.66
CCTGCCATAT | 2.15
CCTGCCCATT | 1.31
CCTGCGTAAT | 4.39
CCTGGACGAA | 1.04
CCTGGACTAA | 1.05
CCTGGGAGTT | 0.99
CCTGGGGCT | 1
CCTGGGTGAC | 1.51
CCTGGTAATT | 1.03
CCTGGTTGAG | 0.951
CCTGTATCCG | 1.1
CCTGTCTCAA | 1.49
CCTGTCTGTT | 1
CCTGTGTTAA | 1.08
CCTGTTAGAG | 0.987
CCTGTTATGT | 1.01
CCTGTTCGGG | 0.981
CCTGTTGAG | 1
CCTTAAACCG | 1.3
CCTTAATTAT | 1
CCTTACCAGC | 2.04
CCTTACTGGT | 1.05
CCTTAGAGGG | 0.993
CCTTAGGTA | 1.01

Sequence | switch fluorescence ratio
CCTTATGTAA | 1.17
CCTTATGTTG | 0.993
CCTTCATAA | 1.18
CCTTCCTAGT | 1.82
CCTTCGTACT | 4.76
CCTTCTGTAA | 3.61
CCTTCTTCAA | 1.82
CCTTGAAGAG | 1.04
CCTTGAATTG | 1.05
CCTTGACATT | 1.06
CCTTGATACA | 1.04
CCTTGCAAAA | 3.46
CCTTGCAAAG | 2.65
CCTTGGCGGT | 1.64
CCTTGGGCAT | 1.67
CCTTGGGGAG | 0.988
CCTTGGGGCC | 0.996
CCTTGTAGCA | 2.34
CCTTGTGCTG | 1.05
CCTTGTTTT | 1.01
CCTTTAATGG | 1.03
CCTTTCAGGG | 1
CCTTTCTCTG | 2.5
CCTTTGCCGT | 1.03
CCTTTGCTCT | 1.4

Sequence | switch fluorescence ratio
CCTTTGGGTA | 1.03
CCTTTGGTAC | 2.33
CCTTTGTGTT | 1
CCTTTGTTAA | 1.1
CCTTTTGGCA | 1.05
CGAAACGCAC | 1.73
CGAAATAAAC | 1.32
CGAAATCCGT | 1.06
CGAACGAGG | 1.01
CGAACTAAAT | 0.99
CGAACTACG | 1.15
CGAACTCCTT | 1
CGAAGAGCTC | 1.02
CGAAGATGTG | 0.994
CGAAGATTG | 0.973
CGAAGCTGTG | 1.02
CGAAGGAAAA | 0.989
CGAAGGACTG | 0.968
CGAAGTCATT | 1.06
CGAAGTGAGC | 1.21
CGAAGTTCGT | 1.03
CGAATAAGCA | 1.02
CGAATATACT | 1.17
CGAATCGCCC | 1.08
CGAATCGCCG | 1.03

Sequence | switch fluorescence ratio
CGAATGGTAT | 1
CGAATGGTGC | 1.04
CGAATTATAC | 1.58
CGACAAATCG | 1.08
CGACAGGGGG | 1.01
CGACAGTCAG | 1.03
CGACATCCTT | 1.02
CGACATGATG | 1.01
CGACATGCGA | 1.16
CGACCCACAC | 1.61
CGACCGAAGA | 1.04
CGACCGACGA | 1.66
CGACCGCGTG | 0.974
CGACCGCTTT | 3.3
CGACCGTAGA | 1.06
CGACCGTCGA | 1.02
CGACCTGGGT | 1.04
CGACGACCTG | 1.02
CGACGCAGGG | 5.24
CGACGCTGTA | 1.4
CGACGGGGCG | 1.03
CGACGGGTGT | 1.22
CGACGTAGCG | 1
CGACGTAGCT | 1.16
CGACTACATG | 1.02

Sequence | switch fluorescence ratio
CGACTAGGGC | 1.04
CGACTCAAAG | 1.01
CGACTCTTAA | 1.09
CGACTGTGTA | 1.03
CGACTTAGCA | 1.04
CGACTTCTGT | 0.989
CGAGAAGAAA | 0.944
CGAGAATGCT | 0.999
CGAGACACAA | 0.994
CGAGACCATG | 1.04
CGAGACGAGT | 0.926
CGAGACGGGT | 0.961
CGAGACTATG | 1.02
CGAGACTGCT | 0.984
CGAGAGCGAG | 1.05
CGAGAGGCTG | 0.978
CGAGAGTGTA | 1.02
CGAGAGTGTG | 1.01
CGAGATCATG | 1.02
CGAGCAAACG | 1.21
CGAGCGACCG | 1.01
CGAGCGTTTC | 1.13
CGAGCTCCTT | 0.981
CGAGCTTAAA | 1
CGAGGAAATA | 1.24

Sequence | switch fluorescence ratio
CGAGGCACGG | 1.14
CGAGGCGGTG | 1.01
CGAGGTAGGA | 1.01
CGAGGTCGGA | 1.03
CGAGGTGCCC | 1.03
CGAGGTGTGC | 0.947
CGAGTAATAG | 2.62
CGAGTACTGC | 1.02
CGAGTAGGCT | 0.981
CGAGTAGTCG | 1.07
CGAGTAGTTT | 1.03
CGAGTCGGAA | 1.02
CGAGTCTCGA | 1.01
CGAGTGAGAA | 0.967
CGAGTGTGCA | 1.02
CGAGTGTGGT | 0.978
CGAGTTAAGG | 0.953
CGATAAGTCG | 0.988
CGATACAAGA | 1.07
CGATACGGTA | 0.964
CGATACTCTG | 1.1
CGATAGTGTC | 0.937
CGATATTGCG | 1.03
CGATCATGGG | 0.972
CGATCGAAAC | 1.03

Sequence | switch fluorescence ratio
CGATCGGTTA | 1.02
CGATCGTAAA | 1
CGATCGTTAA | 1.04
CGATCTGCAT | 1.59
CGATCTTAAG | 0.959
CGATGCGGAT | 1.04
CGATGCTCAC | 4.12
CGATGTAACG | 1.01
CGATGTAATG | 1.04
CGATGTATTA | 0.974
CGATGTTACC | 1.07
CGATTAAGCT | 0.976
CGATTCAATA | 1.67
CGATTCGTCG | 0.937
CGATTCTACC | 1.1
CGATTGCGCT | 1.01
CGATTGTAGC | 1.05
CGATTTAGT | 1.01
CGATTTGAAG | 1.04
CGATTTGTTA | 1
CGCAAACCAA | 1.29
CGCAACAGGG | 1.3
CGCAACCTTT | 1.27
CGCAACTTCA | 1.59
CGCAAGGGA | 3.49
